The list shows a part of the results. The full chains were built here from the parent and the listed change. Inactive controls read about 0.05.
B1: TEV protease; numbered along this chain (parent)
chain: MGESLFKGPRDYNPISSSICHLTNESDGHTTSLYGIGFGPFIITNKHLFRRNNGTLVVQSLHGVFKVKDTTTLQQHLVDGRDMIIIRMPKDFPPFPQKLKFREPQREERICLVTTNFQTKSMSSMVSDTSCTFPSGDGIFWKHWIQTKDGQCGSPLVSTRDGFIVGIHSASNFTNTNNYFTSVPKNFMELLTNQEAQQWVSGWRLNADSVLWGGHKVFMVKPEEPFQPVKEATQL

Variants of: B1
Test: raw area under fraction-flipped curve 0-4 h after induction (AUC4h, not background-subtracted), DNA-recorder readout of cleavage of the substrate (dimensionless); higher = more cleavage of the substrate by the protease variant
Settings: temperature: 34 °C; time window: 0-4 h after rhamnose induction
Procedure: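 In vivo DNA recorder in E. coli TOP10(DE3) ΔrhaA at 34 °C. Each TEVp single-site mutant (parent TEVp 0) is paired with a single-site variant of the 7-mer TEVs (canonical ENLYFQ|S). The substrate sits between flexible linkers in a Bxb1-sfGFP-TEVs-SsrA fusion, so cleavage stabilises Bxb1 and speeds flipping of a recombination array, read by NGS. The value is the raw area under the fraction-flipped curve over 0-4 h after rhamnose induction (AUC4h), with ≥20 reads per time point. It is not background-subtracted; inactive controls average about 0.047.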
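Also: Bxb1 expression induced with 0.2% (w/v) L-rhamnose at OD600 near 0.5, cultures sampled hourly, flipped fraction per protease–substrate barcode pair counted by paired-end Illumina sequencing.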

| Variant | area with substrate EDLYFQS | area with substrate EFLYFQS | area with substrate EKLYFQS | area with substrate ELLYFQS | area with substrate ESLYFQS | area with substrate ETLYFQS | area with substrate EVLYFQS | area with substrate EWLYFQS | area with substrate EELYFQS | area with substrate EGLYFQS |
| --- | --- | --- | --- | --- | --- | --- | --- | --- | --- | --- |
| F187T | 0.12 | 0.0862 | 0.0982 | 0.0517 | 0.0959 | 0.102 | 0.0716 | 0.0834 |  |  |
| E189H | 0.119 | 0.121 |  |  | 0.102 |  |  |  | 0.115 | 0.0915 |
| E189R | 0.0678 | 0.0837 | 0.0976 | 0.0727 | 0.0806 |  | 0.128 | 0.0911 |  |  |
| N193E | 0.0937 |  | 0.102 | 0.0635 | 0.0874 |  |  | 0.0739 | 0.0942 | 0.0714 |
| E195G | 0.117 |  |  |  |  |  | 0.0941 | 0.0888 | 0.121 |  |
| Q197E | 0.0882 |  | 0.118 | 0.0907 | 0.0918 | 0.0748 | 0.098 | 0.0687 |  | 0.0744 |
| W203K | 0.0949 |  | 0.0913 | 0.0673 | 0.0675 | 0.0966 | 0.0674 | 0.0493 | 0.0507 |  |
| L205D | 0.108 |  | 0.0742 |  | 0.0974 |  | 0.0939 | 0.0631 | 0.0951 |  |
| N206I | 0.0992 |  | 0.101 | 0.0935 | 0.117 |  |  |  | 0.119 | 0.0787 |
| A207L | 0.101 |  | 0.091 | 0.0732 | 0.083 |  | 0.111 |  |  |  |
| L211K | 0.12 |  | 0.0949 |  |  |  |  | 0.0758 | 0.101 | 0.101 |
| F218A | 0.09 |  |  | 0.0917 | 0.0825 |  | 0.0822 |  | 0.112 | 0.08 |
| F218D | 0.112 |  |  |  | 0.074 |  | 0.0728 |  | 0.0913 |  |
| K221A | 0.103 |  | 0.111 | 0.0696 | 0.0916 |  |  | 0.117 |  |  |
| Q227F | 0.102 |  |  | 0.0602 | 0.105 |  | 0.0966 |  | 0.0761 |  |
| Q227N | 0.184 | 0.11 | 0.0825 | 0.108 | 0.112 |  |  | 0.0965 |  |  |
| E231L | 0.0812 |  |  |  | 0.0884 |  | 0.0844 |  |  | 0.0926 |
| L235I | 0.108 |  | 0.113 |  |  |  | 0.0748 |  |  | 0.0792 |
| G35Q |  |  | 0.027 |  | 0.0388 | 0.0585 |  |  | 0.05 |  |
| Q59T |  | 0.1 |  | 0.116 |  |  | 0.0935 | 0.109 | 0.117 |  |

| Variant | area with substrate EDLYFQS | area with substrate EFLYFQS | area with substrate EKLYFQS | area with substrate ELLYFQS | area with substrate ESLYFQS | area with substrate ETLYFQS | area with substrate EVLYFQS | area with substrate EWLYFQS | area with substrate EELYFQS | area with substrate EGLYFQS |
| --- | --- | --- | --- | --- | --- | --- | --- | --- | --- | --- |
| L61Q |  |  | 0.103 | 0.085 | 0.0991 |  |  | 0.0867 | 0.122 |  |
| L61V |  |  |  |  | 0.111 |  |  |  | 0.123 | 0.126 |
| H62C |  |  | 0.126 | 0.0804 | 0.0846 |  | 0.0941 |  | 0.131 |  |
| G63C |  | 0.133 | 0.12 | 0.0804 | 0.103 | 0.0896 | 0.0998 |  | 0.148 | 0.0839 |
| G63K |  | 0.0879 | 0.0778 |  | 0.0757 |  | 0.0943 | 0.092 | 0.0811 |  |
| L73F |  |  | 0.0763 |  |  | 0.0741 |  | 0.0566 | 0.0725 |  |
| I84Q |  |  |  |  | 0.0846 |  | 0.0665 |  | 0.0732 |  |
| M88K |  |  |  |  | 0.0665 |  | 0.0711 | 0.0692 | 0.0473 |  |
| K90Y |  |  |  | 0.113 | 0.0986 | 0.029 | 0.0968 | 0.0663 | 0.147 |  |
| D91L |  |  | 0.132 |  | 0.0735 |  |  | 0.0861 | 0.1 | 0.122 |
| P93Q |  | 0.122 |  |  |  |  |  |  | 0.113 |  |
| C111R |  |  | 0.0609 |  | 0.114 | 0.101 |  |  | 0.159 | 0.0858 |
| M122G |  |  | 0.113 |  |  |  |  |  | 0.111 |  |
| T129M |  | 0.1 | 0.0776 |  | 0.0852 |  | 0.0718 |  | 0.119 |  |
| C131R |  |  | 0.0956 | 0.0944 | 0.086 |  | 0.119 |  | 0.109 | 0.0951 |
| F140H |  |  |  | 0.0647 | 0.0825 | 0.0453 |  | 0.0637 | 0.0355 | 0.0705 |
| G153W |  | 0.0547 |  |  | 0.0529 |  | 0.0802 |  | 0.0409 |  |
| T159F |  |  | 0.0966 | 0.0739 | 0.0638 |  |  | 0.0953 | 0.14 |  |
| N172K |  |  |  | 0.056 |  |  |  |  | 0.0745 |  |
| N178V |  |  | 0.0882 | 0.0669 |  |  | 0.073 | 0.0669 | 0.0879 | 0.0841 |

Same assay, conditions: temperature: 34 °C; time window: 0-4 h after rhamnose induction

| Variant | area with substrate EILYFQS | area with substrate EMLYFQS | area with substrate EYLYFQS | area with substrate EHLYFQS | area with substrate EQLYFQS | area with substrate ERLYFQS | area with substrate EPLYFQS |
| --- | --- | --- | --- | --- | --- | --- | --- |
| E189H | 0.0928 | 0.114 | 0.115 |  |  |  |  |
| E189R | 0.0984 | 0.1 |  | 0.109 | 0.0882 |  |  |
| N193E | 0.0819 | 0.093 |  |  | 0.102 | 0.095 |  |
| E195G |  |  |  | 0.114 | 0.0999 |  |  |
| Q197E | 0.075 | 0.0861 | 0.075 | 0.0762 |  |  | 0.089 |
| W203K | 0.0505 | 0.05 |  | 0.055 | 0.0631 | 0.0585 |  |
| L205D | 0.0646 |  |  |  | 0.0753 | 0.0756 | 0.0895 |
| N206I | 0.107 | 0.0805 |  | 0.0852 | 0.0825 | 0.105 | 0.0902 |
| A207L | 0.0937 | 0.0639 |  |  |  | 0.0892 |  |
| L211K | 0.0996 | 0.0994 |  |  | 0.082 |  | 0.0973 |
| F218A |  | 0.0967 |  |  | 0.101 | 0.0836 |  |
| F218D | 0.0524 |  | 0.0696 | 0.0934 |  |  | 0.106 |
| K221A | 0.086 |  |  |  | 0.128 |  |  |
| Q227F | 0.103 |  |  |  |  |  |  |
| Q227N | 0.148 | 0.118 | 0.071 | 0.108 | 0.119 | 0.131 | 0.114 |
| E231L | 0.0826 | 0.127 | 0.0723 |  | 0.105 | 0.0901 |  |
| L235I | 0.0778 |  |  | 0.186 |  |  | 0.134 |
| G35Q |  |  | 0.0551 |  | 0.0495 |  |  |
| Q59T | 0.0804 | 0.143 |  | 0.104 |  |  |  |

| Variant | area with substrate EILYFQS | area with substrate EMLYFQS | area with substrate EYLYFQS | area with substrate EHLYFQS | area with substrate EQLYFQS | area with substrate ERLYFQS | area with substrate EPLYFQS |
| --- | --- | --- | --- | --- | --- | --- | --- |
| L61Q | 0.0985 |  | 0.13 | 0.101 | 0.116 |  | 0.11 |
| L61V | 0.0846 |  |  | 0.115 | 0.124 | 0.078 |  |
| H62C | 0.1 | 0.132 |  |  | 0.0898 | 0.0806 |  |
| G63C | 0.0982 | 0.109 | 0.0977 | 0.119 | 0.102 | 0.0875 | 0.0928 |
| G63K | 0.104 |  |  | 0.117 | 0.107 | 0.121 |  |
| L73F | 0.0619 | 0.0703 |  |  | 0.0761 |  | 0.0798 |
| I84Q | 0.0662 |  |  |  | 0.0957 |  |  |
| M88K |  | 0.0735 |  |  | 0.089 | 0.0775 | 0.0803 |
| K90Y |  |  |  | 0.132 |  | 0.122 | 0.078 |
| D91L |  |  |  | 0.0831 | 0.07 |  |  |
| P93Q |  | 0.162 |  | 0.105 |  | 0.121 |  |
| C111R | 0.101 |  |  |  |  | 0.127 |  |
| T129M | 0.134 |  |  |  |  |  |  |
| C131R | 0.0825 | 0.098 | 0.0733 | 0.1 |  |  | 0.107 |
| F140H |  | 0.0751 |  |  |  | 0.0726 | 0.0654 |
| G153W |  |  |  |  |  | 0.0528 |  |
| N172K |  |  |  |  |  | 0.0713 | 0.0467 |
| N178V | 0.0643 | 0.0986 |  | 0.0655 |  |  |  |

Reference: the supplement of paper PMC12217912
